Some of the results follow. Repeats are few or missing, and single values can be far off.
The compounds below were run on IPC-298 (assay: cell count relative to DMSO control; melanoma cells; higher = more viable cells). Conditions: library dose: standard library concentration; 72 h.
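Also: cells treated in 1,536-well plates, then fixed and DAPI-stained, with nuclei counted from automated high-throughput microscope images.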

Row | Compound | cell count [%]
1 | CCCS(=O)(=O)Nc1ccc(F)c(C(=O)c2c[nH]c3ncc(Cl)cc23)c1F + COc1ccc2c(c1)CCC1C2CCC2(C)C(NCCCCCCN3C(=O)C=CC3=O)CCC12 [U73122] (first compound 0.4 µM, partner dose 2 µM) | 94.3
2 | CCCS(=O)(=O)Nc1ccc(F)c(C(=O)c2c[nH]c3ncc(Cl)cc23)c1F + C#Cc1cccc(Nc2ncnc3cc(OCCOC)c(OCCOC)cc23)c1 [erlotinib] (first compound 0.4 µM, partner dose 4 µM) | 43.9
3 | CS(=O)(=O)c1ccc(C(=O)Nc2ccc(Cl)c(-c3ccccn3)c2)c(Cl)c1 [vismodegib] + COc1ccc(Cl)c(Nc2nc3ccccc3nc2NS(=O)(=O)c2cccc(NC(=O)C(C)(C)N)c2)c1 [XL147] (first compound 5 µM, partner dose 4 µM) | 84.5
4 | CS(=O)(=O)c1ccc(C(=O)Nc2ccc(Cl)c(-c3ccccn3)c2)c(Cl)c1 [vismodegib] + Cn1c(Nc2ccc(C(F)(F)F)cc2)nc2cc(Oc3ccnc(-c4ncc(C(F)(F)F)[nH]4)c3)ccc21 [CHIR265] (first compound 5 µM, partner dose 0.4 µM) | 40.3
5 | C=C(c1ccc(C(=O)O)cc1)c1cc2c(cc1C)C(C)(C)CCC2(C)C [Bexarotene] + C=CCn1c(=O)c2cnc(Nc3ccc(N4CCN(C)CC4)cc3)nc2n1-c1cccc(C(C)(C)O)n1 [MK1775] (first compound 10 µM, partner dose 0.1 µM) | 82
6 | CS(=O)(=O)c1ccc(C(=O)Nc2ccc(Cl)c(-c3ccccn3)c2)c(Cl)c1 [vismodegib] + Oc1cc(-c2nc(-c3ccccc3)[nH]c2-c2ccncc2)ccc1Cl [L779450] (first compound 5 µM, partner dose 1 µM) | 74.8
7 | CN(c1ncccc1CNc1nc(Nc2ccc3c(c2)CC(=O)N3)ncc1C(F)(F)F)S(C)(=O)=O + C=C(c1ccc(C(=O)O)cc1)c1cc2c(cc1C)C(C)(C)CCC2(C)C [Bexarotene] (first compound 0.4 µM, partner dose 10 µM) | 73.7
8 | CS(=O)(=O)c1ccc(C(=O)Nc2ccc(Cl)c(-c3ccccn3)c2)c(Cl)c1 [vismodegib] + O=C1NC(=O)/C(=C/c2ccc(-c3ccc(F)cc3O)o2)S1 [AS252424] (first compound 5 µM, partner dose 5 µM) | 93.9
9 | NC1(c2ccc(-c3nc4ccn5c(=O)[nH]nc5c4cc3-c3ccccc3)cc2)CCC1 + CN(NC(=O)CC(=O)NN(C)C(=S)c1ccccc1)C(=S)c1ccccc1 [STA4783] (first compound 2 µM, partner dose 0.03 µM) | 72.4
10 | CS(=O)(=O)c1ccc(C(=O)Nc2ccc(Cl)c(-c3ccccn3)c2)c(Cl)c1 [vismodegib] + NC1(c2ccc(-c3nc4ccn5c(=O)[nH]nc5c4cc3-c3ccccc3)cc2)CCC1 [MK2206] (first compound 5 µM, partner dose 2 µM) | 83.2
11 | CN(c1ncccc1CNc1nc(Nc2ccc3c(c2)CC(=O)N3)ncc1C(F)(F)F)S(C)(=O)=O + O=C(CCCCCCC(=O)Nc1ccccc1)NO [vorinostat] (first compound 0.4 µM, partner dose 0.4 µM) | 82.2
12 | CS(=O)(=O)c1ccc(C(=O)Nc2ccc(Cl)c(-c3ccccn3)c2)c(Cl)c1 [vismodegib] + Nc1ncn([C@H]2C[C@H](O)[C@@H](CO)O2)c(=O)n1 [decitabine] (first compound 5 µM, partner dose 0.5 µM) | 63.6
13 | CN(c1ncccc1CNc1nc(Nc2ccc3c(c2)CC(=O)N3)ncc1C(F)(F)F)S(C)(=O)=O + O=C(Nc1cccc(Cl)c1)Nc1ncc(CCNc2ncnc3ccsc23)s1 [SNS314] (first compound 0.4 µM, partner dose 0.004 µM) | 79.8
14 | C=C(c1ccc(C(=O)O)cc1)c1cc2c(cc1C)C(C)(C)CCC2(C)C [Bexarotene] + COc1ccc(-c2ccc3c(N4CCOCC4)nc(N4C[C@@H](C)O[C@@H](C)C4)nc3n2)cc1CO [KU0063794] (first compound 10 µM, partner dose 0.1 µM) | 74.6
15 | C=C(c1ccc(C(=O)O)cc1)c1cc2c(cc1C)C(C)(C)CCC2(C)C [Bexarotene] + Cn1cncc1[C@@](N)(c1ccc(Cl)cc1)c1ccc2c(c1)c(-c1cccc(Cl)c1)cc(=O)n2C [tipifarnib] (first compound 10 µM, partner dose 0.05 µM) | 93.9
16 | CCCS(=O)(=O)Nc1ccc(F)c(C(=O)c2c[nH]c3ncc(Cl)cc23)c1F + CCN(CC)CCCCNc1ncc2cc(-c3cc(OC)cc(OC)c3)c(NC(=O)NC(C)(C)C)nc2n1 [PD173074] (first compound 0.4 µM, partner dose 0.5 µM) | 90.4

Row | Compound | cell count [%]
17 | CN(c1ncccc1CNc1nc(Nc2ccc3c(c2)CC(=O)N3)ncc1C(F)(F)F)S(C)(=O)=O + Cn1c(Nc2ccc(C(F)(F)F)cc2)nc2cc(Oc3ccnc(-c4ncc(C(F)(F)F)[nH]4)c3)ccc21 [CHIR265] (first compound 0.4 µM, partner dose 0.4 µM) | 35.2
18 | C=C(c1ccc(C(=O)O)cc1)c1cc2c(cc1C)C(C)(C)CCC2(C)C [Bexarotene] + CC(=O)c1c(C)c2cnc(Nc3ccc(N4CCNCC4)cn3)nc2n(C2CCCC2)c1=O [palbociclib] (first compound 10 µM, partner dose 0.2 µM) | 59.1
19 | C=C(c1ccc(C(=O)O)cc1)c1cc2c(cc1C)C(C)(C)CCC2(C)C [Bexarotene] + Cc1nc(Nc2ncc(C(=O)Nc3c(C)cccc3Cl)s2)cc(N2CCN(CCO)CC2)n1 [dasatanib] (first compound 10 µM, partner dose 0.02 µM) | 70.3
20 | CCCS(=O)(=O)Nc1ccc(F)c(C(=O)c2c[nH]c3ncc(Cl)cc23)c1F + NCC(=O)Nc1ccc(-n2nc(C(F)(F)F)cc2-c2ccc3c(ccc4ccccc43)c2)cc1 [OSU03012] (first compound 0.4 µM, partner dose 5 µM) | 43.5
21 | NC1(c2ccc(-c3nc4ccn5c(=O)[nH]nc5c4cc3-c3ccccc3)cc2)CCC1 + OCCn1cc(-c2cnc3nnn(Cc4ccc5ncccc5c4)c3n2)cn1 [PF04217903] (first compound 2 µM, partner dose 5 µM) | 119
22 | C=C(c1ccc(C(=O)O)cc1)c1cc2c(cc1C)C(C)(C)CCC2(C)C [Bexarotene] + C#Cc1cccc(Nc2ncnc3cc(OCCOC)c(OCCOC)cc23)c1 [erlotinib] (first compound 10 µM, partner dose 4 µM) | 70.7
23 | CS(=O)(=O)c1ccc(C(=O)Nc2ccc(Cl)c(-c3ccccn3)c2)c(Cl)c1 [vismodegib] + CC(C)CCN1c2nc(Nc3cc(F)c(O)c(F)c3)ncc2N(C)C(=O)C1C [BID1870] (first compound 5 µM, partner dose 1 µM) | 79.3
24 | NC1(c2ccc(-c3nc4ccn5c(=O)[nH]nc5c4cc3-c3ccccc3)cc2)CCC1 + COc1cc2c(Oc3ccc4[nH]c(C)cc4c3F)ncnc2cc1OCCCN1CCCC1 [cediranib] (first compound 2 µM, partner dose 2 µM) | 111
25 | C=C(c1ccc(C(=O)O)cc1)c1cc2c(cc1C)C(C)(C)CCC2(C)C [Bexarotene] + COc1ccc2c(c1)CCC1C2CCC2(C)C(NCCCCCCN3C(=O)C=CC3=O)CCC12 [U73122] (first compound 10 µM, partner dose 2 µM) | 71.5
26 | NC1(c2ccc(-c3nc4ccn5c(=O)[nH]nc5c4cc3-c3ccccc3)cc2)CCC1 + CS(=O)(=O)CCNCc1ccc(-c2ccc3ncnc(Nc4ccc(OCc5cccc(F)c5)c(Cl)c4)c3c2)o1 [lapatinib] (first compound 2 µM, partner dose 4 µM) | 76.2
27 | CS(=O)(=O)c1ccc(C(=O)Nc2ccc(Cl)c(-c3ccccn3)c2)c(Cl)c1 [vismodegib] + COCC[n+]1c2c(n(Cc3cnccn3)c1C)C(=O)c1ccccc1C2=O [YM155] (first compound 5 µM, partner dose 0.002 µM) | 73.8
28 | CCCS(=O)(=O)Nc1ccc(F)c(C(=O)c2c[nH]c3ncc(Cl)cc23)c1F + CC(=O)c1c(C)c2cnc(Nc3ccc(N4CCNCC4)cn3)nc2n(C2CCCC2)c1=O [palbociclib] (first compound 0.4 µM, partner dose 0.2 µM) | 45.8
29 | C=C(c1ccc(C(=O)O)cc1)c1cc2c(cc1C)C(C)(C)CCC2(C)C [Bexarotene] + O=C(O)C(=O)Nc1sc2c(c1C(=O)O)CCNC2 [TCS401] (first compound 10 µM, partner dose 8.33333 µM) | 85.5
30 | CCCS(=O)(=O)Nc1ccc(F)c(C(=O)c2c[nH]c3ncc(Cl)cc23)c1F + Nc1nc(F)nc2c1ncn2[C@@H]1O[C@H](CO)[C@@H](O)[C@@H]1O [fludarabine] (first compound 0.4 µM, partner dose 1 µM) | 61.4
31 | NC1(c2ccc(-c3nc4ccn5c(=O)[nH]nc5c4cc3-c3ccccc3)cc2)CCC1 + COc1ccc2c(c1)CCC1C2CCC2(C)C(NCCCCCCN3C(=O)C=CC3=O)CCC12 [U73122] (first compound 2 µM, partner dose 2 µM) | 70.4
32 | CS(=O)(=O)c1ccc(C(=O)Nc2ccc(Cl)c(-c3ccccn3)c2)c(Cl)c1 [vismodegib] + COc1cc(N2CCC(N3CCN(C)CC3)CC2)ccc1Nc1ncc(Cl)c(Nc2ccccc2S(=O)(=O)C(C)C)n1 [NVP-TAE684] (first compound 5 µM, partner dose 0.4 µM) | 103
